# The other results are listed elsewhere or left out. No stated cut-off is given here; in the data, active = 3.2 or more and inactive = the rest. Only a few entries rise above the background.
# Columns and labels:
# Experiment in all cases: enrichment score (SH2-bound / input frequency) (ratio); bacterial display of known human phosphotyrosine sites (pTyr-Var adds point mutants) read by sequencing; higher = stronger binding; tyrosines were phosphorylated by kinases first
# Details in all cases: peptide library: pTyr-Var
# SHP2 C-SH2 domain E139D = biological target: SHP2 C-SH2 domain E139D
# [1] = biological target: SHP2 C-SH2 domain wild-type
# SHP2 N-SH2 domain L43F = biological target: SHP2 N-SH2 domain L43F
# SHP2 N-SH2 domain T42A = biological target: SHP2 N-SH2 domain T42A
# SHP2 N-SH2 domain T52S = biological target: SHP2 N-SH2 domain T52S
# [2] = biological target: SHP2 N-SH2 domain wild-type
# 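Further: displayed peptides selected on beads carrying the immobilized SH2 domain, with library peptides lacking any tyrosine serving as negative controls.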
Binder,enrichment score (SHP2 C-SH2 domain E139D),enrichment score [1],enrichment score (SHP2 N-SH2 domain L43F),enrichment score (SHP2 N-SH2 domain T42A),enrichment score (SHP2 N-SH2 domain T52S),enrichment score [2]
GMRHGHGVRQS [JPH2_Y141_Y141H],inactive: 2.45,inactive: 2.04,inactive: 2.2,inactive: 2.09,inactive: 2.42,inactive: 1.88
EWQQTYTYDSG [JUP_Y20],inactive: 0.934,inactive: 0.746,inactive: 0.727,inactive: 0.767,inactive: 0.984,inactive: 0.887
EWQQTYTFDSG [JUP_Y20_YF],inactive: 0.979,inactive: 0.757,inactive: 0.876,inactive: 1.05,inactive: 0.944,inactive: 1.02
QQTFTYDSGIH [JUP_Y22_YF],inactive: 0.72,inactive: 0.759,inactive: 0.68,inactive: 0.68,inactive: 0.755,inactive: 1.22
PINEPYGDDLD [JUP_Y693_M697L],inactive: 0.736,inactive: 0.521,inactive: 0.549,inactive: 0.551,inactive: 0.495,inactive: 0.422
DLDATYRPMYS [JUP_Y701_M697L],inactive: 0.564,inactive: 0.493,inactive: 0.567,inactive: 0.525,inactive: 0.581,inactive: 0.621
DMDATYRPMFS [JUP_Y701_YF],inactive: 0.841,inactive: 0.701,inactive: 0.668,inactive: 1.89,inactive: 0.762,inactive: 0.768
VRKRSYSAGNA [KANK1_Y324],inactive: 0.27,inactive: 0.306,inactive: 0.263,inactive: 0.277,inactive: 0.222,inactive: 0.729
GKLIFYDLRGE [KARS1_Y145],inactive: 1.14,inactive: 0.94,inactive: 1.23,inactive: 1.13,inactive: 1.35,inactive: 1.27
GREEFYVHFVG [KAT8_Y90_YF],inactive: 1.4,inactive: 1.5,inactive: 1.04,inactive: 1.24,inactive: 1.17,inactive: 1.23
ASNFNYFYHRE [KCNA1_Y413_V408A],inactive: 0.83,inactive: 0.789,inactive: 0.581,inactive: 0.817,inactive: 1.28,inactive: 0.842
DPYHVYIKNHV [KCNE3_Y95_R99H],inactive: 1.03,inactive: 1.01,inactive: 0.94,inactive: 0.845,inactive: 0.873,inactive: 1.06
DPFHVYIKNHV [KCNE3_Y95_R99H_YF],inactive: 0.832,inactive: 0.81,inactive: 0.663,inactive: 0.888,inactive: 0.771,inactive: 0.784
SRGRQYQELPR [KCNH2_Y1009],inactive: 0.48,inactive: 0.459,inactive: 0.475,inactive: 0.445,inactive: 0.431,inactive: 0.489
DVLPEYKLQAP [KCNH2_Y388],inactive: 0.592,inactive: 0.632,inactive: 0.684,inactive: 0.515,inactive: 0.472,inactive: 0.747
NVLPEYKLQAP [KCNH2_Y388_D383N],inactive: 1,inactive: 0.756,inactive: 0.864,inactive: 0.756,inactive: 0.981,inactive: 0.803
SIKDKYVTALY [KCNH2_Y611],inactive: 1.01,inactive: 0.847,inactive: 0.71,inactive: 0.774,inactive: 0.73,inactive: 0.759
SIKDKYVTVLY [KCNH2_Y611_A614V],inactive: 0.921,inactive: 1.45,inactive: 1.28,inactive: 1.55,inactive: 1.26,inactive: 1.09
SIKGKYVTALF [KCNH2_Y611_D609G_YF],inactive: 0.799,inactive: 0.819,inactive: 2.08,inactive: 1.32,inactive: 2.71,inactive: 1.37

Binder,enrichment score (SHP2 C-SH2 domain E139D),enrichment score [1],enrichment score (SHP2 N-SH2 domain L43F),enrichment score (SHP2 N-SH2 domain T42A),enrichment score (SHP2 N-SH2 domain T52S),enrichment score [2]
SIKHKYVTALY [KCNH2_Y611_D609H],inactive: 0.747,inactive: 0.781,inactive: 0.757,inactive: 0.787,inactive: 0.721,inactive: 0.753
SIKDKYVTAFY [KCNH2_Y611_L615F],inactive: 0.851,inactive: 0.797,inactive: 1.18,inactive: 0.807,inactive: 1.33,inactive: 0.818
SIKDKYVTAVF [KCNH2_Y611_L615V_YF],inactive: 1.23,inactive: 1.33,active: 3.33,inactive: 1.76,active: 4.16,inactive: 1.62
SIKDKYVMALY [KCNH2_Y611_T613M],inactive: 1.1,inactive: 0.727,inactive: 0.72,inactive: 0.891,inactive: 0.977,inactive: 1.23
SIKDKYVMALF [KCNH2_Y611_T613M_YF],inactive: 0.969,inactive: 0.966,inactive: 1.48,inactive: 0.948,inactive: 1.41,inactive: 1.12
LLTALYFISWG [KCNH2_Y780_R784W],inactive: 2.59,inactive: 2.67,inactive: 2.58,inactive: 2.06,inactive: 2.46,inactive: 2.79
VRALTYCDLHK [KCNH2_Y827],inactive: 0.734,inactive: 1.01,inactive: 0.795,inactive: 1.07,inactive: 0.879,inactive: 1.09
MRALTYCDLHK [KCNH2_Y827_V822M],inactive: 0.937,inactive: 1.27,inactive: 1.16,inactive: 1.15,inactive: 0.781,inactive: 1.21
PAKPRYRARQR [KCNJ11_Y26_E23K],inactive: 0.29,inactive: 0.223,inactive: 0.201,inactive: 0.251,inactive: 0.269,inactive: 0.287
GCRSKYVGLWG [KCNQ1_Y184],inactive: 0.719,inactive: 0.748,inactive: 0.593,inactive: 0.628,inactive: 0.685,inactive: 0.654
SCRSKYVGLWG [KCNQ1_Y184_G179S],inactive: 0.784,inactive: 0.74,inactive: 0.741,inactive: 1.25,inactive: 0.619,inactive: 0.763
GCRSKSVGLWG [KCNQ1_Y184_Y184S],inactive: 0.712,inactive: 0.698,inactive: 0.776,inactive: 0.492,inactive: 0.632,inactive: 0.843
LITTLYIDFLG [KCNQ1_Y267_G269D],inactive: 2.04,inactive: 2.53,inactive: 1.94,inactive: 1.79,inactive: 1.73,inactive: 2.53
LITTLYSGFLG [KCNQ1_Y267_I268S],active: 3.39,inactive: 2.85,active: 3.42,active: 3.33,inactive: 2.22,inactive: 2.95
FSVDGYDSSVR [KCNQ1_Y461],inactive: 0.928,inactive: 0.621,inactive: 0.626,inactive: 0.476,inactive: 0.834,inactive: 0.764
FSVDSYDSSVR [KCNQ1_Y461_G460S],inactive: 0.988,inactive: 0.904,inactive: 1.28,inactive: 0.83,inactive: 1.24,inactive: 0.889
LGSVVYAHSKE [KCNQ2_Y226],inactive: 0.969,inactive: 1.03,inactive: 0.903,inactive: 0.547,inactive: 0.849,inactive: 0.618
LGSVVYAQSKE [KCNQ2_Y226_H228Q],inactive: 0.673,inactive: 1.03,inactive: 0.948,inactive: 0.602,inactive: 0.864,inactive: 1.1
